The MIC is the lowest concentration that inhibits growth of the organism.

MIC of N. gonorrhoeae strains collected 1971-2005, agar dilution (CLSI M07); ranges 0.03-64 mg/L (penicillin, azithromycin), 0.015-1 (cefixime, ceftriaxone), 0.5-256 (spectinomycin); higher = less susceptible. No active / inactive call per row; the paper counts cefixime and ceftriaxone above 0.25 and azithromycin above 1 mg/L as non-susceptible. The source says 'penicillin'; penicillin G is assumed. Isolates are numbered anew.

These results are taken from the supplement of paper PMC10928670.

Assay in all cases: Agar dilution by CLSI M07.
For orientation: In agar dilution the substance is mixed into plates at graded concentrations.

Compound in assay [1]: C=CC1=C(C(=O)O)N2C(=O)[C@@H](NC(=O)/C(=N\OCC(=O)O)c3csc(N)n3)[C@H]2SC1 [cefixime]
Compound in assay [2]: CC1(C)S[C@@H]2[C@H](NC(=O)Cc3ccccc3)C(=O)N2[C@H]1C(=O)O [penicillin G]
Compound in assay [3]: CC[C@H]1OC(=O)[C@H](C)[C@@H](O[C@H]2C[C@@](C)(OC)[C@@H](O)[C@H](C)O2)[C@H](C)[C@@H](O[C@@H]2O[C@H](C)C[C@H](N(C)C)[C@H]2O)[C@](C)(O)C[C@@H](C)CN(C)[C@H](C)[C@@H](O)[C@]1(C)O [azithromycin]
Compound in assay [4]: CN[C@@H]1[C@H](O)[C@H](NC)[C@H]2O[C@@]3(O)C(=O)C[C@@H](C)O[C@H]3O[C@@H]2[C@H]1O [spectinomycin]
Compound in assay [5]: CO/N=C(\C(=O)N[C@@H]1C(=O)N2C(C(=O)O)=C(CSc3nc(=O)c(O)nn3C)CS[C@H]12)c1csc(N)n1 [ceftriaxone]

Consider “Neisseria gonorrhoeae isolate 138 (GyrA: Wild type, ParC: Wild type, mtrR: -35A Del, G45D, penA: Type I NonMosaic, ponA: Wild type, porB: G120D, A121D)”, for which the MIC in assay [1] is no more than 0.015 mg/L; in assay [2], 0.06 mg/L; in assay [3] it was no more than 0.03 mg/L; in assay [4] it was 8 mg/L; in assay [5], no more than 0.015 mg/L.
